Measurements published in the antibiotic and cytotoxicity screens of Wong et al. (2023).
The list shows a part of the results.

Each compound was assayed on S. aureus RN4220 (assay: growth inhibition call (relative growth <= 0.2)). Settings: 50 µM.

Growth inhibition call, inactive:
CC(C)NC(=O)Nc1ccc2c(c1)C(=O)N([C@H](C)CO)C[C@H](C)[C@H](CN(C)C(=O)Nc1ccccc1)OCCCC[C@@H](C)O2
Nc1ccn2ccnc2c1
CCc1c(C)[nH]c(=S)c(C#N)c1C
COc1ccc(C#Cc2ccc3c(c2)O[C@@H](CN(C)C(=O)c2ccccn2)[C@@H](C)CN([C@@H](C)CO)S3(=O)=O)cc1
COc1ccc(S(=O)(=O)N(C)C[C@H]2OCCCC[C@H](C)Oc3ccc(NS(=O)(=O)c4ccc(Cl)cc4)cc3C(=O)N([C@@H](C)CO)C[C@@H]2C)cc1
C[C@H](CO)N1C[C@H](C)[C@H](CN(C)S(C)(=O)=O)Oc2ccc(NC(=O)Cc3cn(C)c4ccccc34)cc2C1=O
CC1=C(C(=O)O)N2C(=O)[C@@H](NC(=O)[C@H](N)C3=CCC=CC3)[C@H]2SC1
C[C@H](CO)N1C[C@H](C)[C@H](CN(C)Cc2cccnc2)Oc2cc(C#CCN(C)C)ccc2S1(=O)=O
CO[C@@H]1CN(C)C(=O)c2ccc(NC(=O)C3CCOCC3)cc2OC[C@H](C)N(Cc2cccnc2)C[C@@H]1C
C[C@@H]1CN([C@H](C)CO)C(=O)c2cc(NS(=O)(=O)c3ccccc3)ccc2O[C@@H](C)CCCCO[C@H]1CN(C)Cc1ccc(C(=O)O)cc1
Cc1noc(C)c1NC(=O)N(C)C[C@H]1OCCCC[C@H](C)Oc2ccc(NC(=O)C3CCCCC3)cc2C(=O)N([C@H](C)CO)C[C@@H]1C
COC(=O)c1sc2ccccc2c1NC(=O)c1ccc(S(=O)(=O)N2C[C@@]3(C)C[C@@H]2CC(C)(C)C3)cc1
O=C(Cc1ccncc1)NCC[C@@H]1CC[C@H](NC(=O)C2CCOCC2)[C@H](CO)O1
CCCNC(=O)Nc1ccc2c(c1)C(=O)N(C)C[C@@H](OC)[C@H](C)CN(Cc1ccc(-c3ccccn3)cc1)[C@H](C)CO2
C[C@@H]1CCCCO[C@@H](CN(C)C(=O)Nc2ccc3c(c2)OCO3)[C@H](C)CN([C@@H](C)CO)C(=O)c2cc(NC(=O)c3ccccc3)ccc2O1
COc1cccc(S(=O)(=O)N(C)C[C@@H]2Oc3ncc(C#Cc4ccc(OC)c(OC)c4)cc3C(=O)N([C@H](C)CO)C[C@@H]2C)c1
COc1ccc(-c2cnc3c(c2)C(=O)N([C@@H](C)CO)C[C@@H](C)[C@H](CN(C)C(=O)Cc2ccncc2)O3)cc1
C[C@H]1CN([C@@H](C)CO)S(=O)(=O)c2ccc(C#Cc3ccccc3F)cc2O[C@@H]1CN(C)C(=O)Cc1ccncc1
COc1ccc(NC(=O)N(C)C[C@H]2Oc3cc(C#CCN(C)C)ccc3S(=O)(=O)N([C@@H](C)CO)C[C@H]2C)cc1
C[C@@H]1O[C@@H](O[C@H]2[C@H](O[C@H]3[C@H](O)[C@@H](C(=O)O)O[C@@H](O[C@H]4CC[C@]5(C)[C@H]6CC[C@]78OC[C@@]9(CCC(C)(C)C[C@@H]97)[C@H](O)C[C@@]8(C)[C@]6(C)CC[C@H]5C4(C)C)[C@@H]3OC3O[C@H](CO)[C@@H](O)[C@H](O)[C@H]3O)O[C@H](CO)[C@H](O)[C@@H]2O)[C@H](O)[C@H](O)[C@H]1O (stereo partly drawn)
O=C(CCCCCCC(=O)Nc1ccc([C@H]2C[C@H](c3ccccc3)O[C@H](c3ccccc3)O2)cc1)NO
COc1ccc(S(=O)(=O)N(C)C[C@H]2Oc3ccc(NS(C)(=O)=O)cc3C(=O)N([C@H](C)CO)C[C@@H]2C)cc1
CCS(=O)(=O)N1C[C@]2(CN(C2)C(=O)c2ccc3c(c2)OCO3)c2c(n(c3cc(ccc23)OC)C)[C@@H]1CO
C[C@H]1CCCCO[C@H](CN(C)S(=O)(=O)c2ccccc2)[C@@H](C)CN([C@@H](C)CO)C(=O)c2cc(NS(=O)(=O)c3ccc(Cl)cc3)ccc2O1
C[C@H](CO)N1C[C@H](C)[C@@H](CN(C)Cc2ccc(C(=O)O)cc2)Oc2ccc(NC(=O)c3ccncc3)cc2C1=O
COc1ccc(NC(=O)N(C)C[C@@H]2OCCCC[C@H](C)Oc3ccc(NC(=O)Cc4ccccc4)cc3C(=O)N([C@H](C)CO)C[C@@H]2C)cc1
CCCN(CCC)c1cc(N2CCCC2)c2ccccc2c1
C[C@@H]1CN([C@@H](C)CO)C(=O)c2cc(NC(=O)c3ccccc3)ccc2O[C@@H](C)CCCCO[C@@H]1CN(C)S(=O)(=O)c1ccc(F)cc1
